Results reported in PubChem BioAssay AID1721 (National Center for Advancing Translational Sciences (NCATS), 2009).
The whole screen tested about 290,000 compounds, of which about 1,100 (0.38%) were called active. The shares of active, inactive and inconclusive entries below differ from those in the screen. The call rests on the fitted dose curve; in most records, active means well fitted inhibition curve with a large enough effect; inconclusive means small, poorly fitted or top-dose-only effect, or another doubt; inactive means no such curve, though single readings can be large or run the other way. Potencies beside an inconclusive call are fits to weak or partial responses and may not hold up.
Potency means the concentration at half of the fitted maximal effect; tags describe the fitted curve by direction and shape.

Each compound was assayed against Pyruvate kinase (Leishmania mexicana) (UniProt Q27686) (assay: qHTS Assay for Inhibitors of Leishmania Mexicana Pyruvate Kinase (LmPK)). Conditions: purified LmPK, Kinase-Glo ATP luminescence, 1 h; series mostly up to 57.5 µM.
UniProt Q27686, sequence (Q27686 whole entry, looked up): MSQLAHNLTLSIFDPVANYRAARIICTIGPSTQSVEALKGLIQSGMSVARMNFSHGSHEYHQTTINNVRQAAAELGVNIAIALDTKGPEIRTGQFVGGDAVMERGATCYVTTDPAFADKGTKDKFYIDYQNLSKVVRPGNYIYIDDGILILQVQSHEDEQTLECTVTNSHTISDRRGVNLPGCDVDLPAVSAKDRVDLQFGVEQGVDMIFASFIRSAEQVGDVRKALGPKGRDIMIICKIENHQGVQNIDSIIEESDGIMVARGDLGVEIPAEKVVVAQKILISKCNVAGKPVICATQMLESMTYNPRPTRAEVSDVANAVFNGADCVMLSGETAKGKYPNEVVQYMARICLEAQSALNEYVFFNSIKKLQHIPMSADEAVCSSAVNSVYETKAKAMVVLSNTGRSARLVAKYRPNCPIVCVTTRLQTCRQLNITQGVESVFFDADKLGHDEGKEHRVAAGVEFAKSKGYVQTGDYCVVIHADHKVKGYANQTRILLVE
In short: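 Purified LmPK (0.1 nM) with 0.5 mM PEP and 0.1 mM ADP in imidazole buffer pH 7.2 with MgCl2/KCl, 1 h at room temperature. ATP formed was read by luciferase luminescence and normalized to no-enzyme and uninhibited controls.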
For S=c1[nH]nc(-c2ccn[nH]2)n1-c1ccccc1Cl, the Potency was inconclusive: 31.6 µM [falling, single point].
For COCCNC(=S)Nc1ccccn1, the Potency was “inactive”.
With O=C(Nc1ccc(Cl)cn1)c1cccc(F)c1 the Potency was inconclusive: 17.8 µM [falling, partial curve].
For CCOC(=O)C1=C(C)N(c2ccccc2)C(=O)/C1=C\c1ccc(O)c(OC)c1, the Potency was inconclusive: 39.8 µM [falling, single point].
In the case of O=C1/C(=C/c2ccc([N+](=O)[O-])cc2)CCC1C1CCCC1 (centres undefined), the Potency is reported as “inactive”.
With NC(=O)COc1cccc2cccnc12 the Potency was “inactive”.
In the case of Clc1cccc(Cl)c1/C=C/c1nc2ccccc2[nH]1, the Potency is reported as inconclusive: 28.2 µM [falling, single point].
CSc1ccc(NC(=O)NCCCN2CCC(Cc3ccccc3)CC2)cc1 was tested, and the Potency was “inactive”.
With O=c1/c(=C/c2ccccn2)sc2nc3ccccc3n12 the Potency was inconclusive: 14.1 µM [falling, partial curve].
With [O-]/[N+](=C\C=C\c1ccccc1)c1ccccc1 the Potency was inconclusive: 14.1 µM [falling, partial curve].
In the case of COc1ccc(NC(=O)COc2ccc(/C=N/NC(=O)c3cccnc3)cc2OC)cc1, the Potency is reported as “inactive”.
For Cc1ccc(S(=O)(=O)ON2C(=O)c3ccccc3C2=O)c(C)c1, the Potency was inconclusive: 20 µM [falling, partial curve].
For CC(C)(C)c1ccc(CN2N=Nc3ccccc3S2(=O)=O)cc1, the Potency was “inactive”.
COc1ccc2oc(-c3ccco3)cc(=O)c2c1 was tested, and the Potency was inconclusive: 10 µM [falling, partial curve].
In the case of O=C(Nc1ccc(Oc2ccc3c(c2)C(=O)N(c2ccc(O)cc2)C3=O)cc1)c1cccs1, the Potency is reported as “inactive”.
With Oc1ccc(Br)cc1C=Nc1cccn2cc(-c3ccccc3)nc12 the Potency was inconclusive: 14.1 µM [falling, single point].
For c1ccc(-c2noc(-c3cccc4ccccc34)n2)nc1, the Potency was inconclusive: 25.1 µM [falling, partial curve].
With O=C(O)CCCn1c(=S)[nH]c2c(sc3ccc([N+](=O)[O-])cc32)c1=O the Potency was inconclusive: 39.8 µM [falling, single point].
With O=C1CCC(=O)N1c1ccc(-c2nc3ccccc3s2)cc1 the Potency was inconclusive: 14.1 µM [falling, partial curve].
CC1CN(C(=O)CCC(=O)N2CCN(c3cccc(C(F)(F)F)c3)CC2)c2ccccc2O1 (centres undefined) was tested, and the Potency was “inactive”.
For COCCN1CN=C(Nc2nc(C)c3ccc(C)cc3n2)NC1, the Potency was “inactive”.
With Cc1onc(-c2ccccc2)c1-c1n[nH]c(=S)n1-c1ccc(C(=O)O)cc1 the Potency was inconclusive: 35.5 µM [falling, single point].
With COc1ccc(NC(=O)C2CCCO2)cc1 (centres undefined) the Potency was “inactive”.
With CCOC(=O)C1CCCN(C(=O)c2ccc3c(c2)N(C)C(=O)/C(=C/c2ccccc2Cl)S3)C1 (centres undefined) the Potency was “inactive”.
COc1ccc(NC(=O)c2ccccc2F)cc1Cl was tested, and the Potency was inconclusive: 10 µM [falling, partial curve].
In the case of CCOc1ccc(Cl)cc1CNCCc1ccc(F)cc1, the Potency is reported as “inactive”.
In the case of Cc1cccc2c1c1ccc3c(c1n2C)C(=O)C=CC3=O, the Potency is reported as inconclusive: 3.55 µM [falling, full curve, poor fit].
For Cc1nn(C)cc1/C=C/C(=O)c1cccs1, the Potency was inconclusive: 22.4 µM [falling, single point].
With O=C(COc1ccc2c(c1)OCO2)Nc1nccs1 the Potency was active: 14.1 µM.
For c1ccc(-c2noc(-c3ccc4c(c3)OCO4)n2)cc1, the Potency was active: 15.8 µM.
For COC(=O)c1ccc(NC(=O)c2cccc(OC)c2)cc1, the Potency was inconclusive: 14.1 µM [falling, partial curve].
Cc1cc(-c2n[nH]c(=S)n2/N=C/c2c[nH]c3ccccc23)n[nH]1 was tested, and the Potency was inconclusive: 7.94 µM [falling, partial curve].
For CCOc1ccc(/C=N/Nc2ccccn2)cc1, the Potency was inconclusive: 31.6 µM [falling, single point].
In the case of O=C(O)c1cc(/C=C/c2ccc(N3CCOCC3)c([N+](=O)[O-])c2)nc2ccccc12, the Potency is reported as inconclusive: 17.8 µM [falling, partial curve].
In the case of NC(=O)c1ccccc1N/C=C/C(=O)c1ccc(Cl)cc1, the Potency is reported as inconclusive: 25.1 µM [falling, partial curve].
With COc1ccc(OCC(=O)Nc2nccs2)cc1 the Potency was active: 25.1 µM.
For Cc1nonc1C(=O)N/N=C/c1cccc(O)c1, the Potency was active: 14.1 µM.
For CCc1cc2cc(C)cc(C)c2[nH]c1=S, the Potency was inconclusive: 4.47 µM [falling, partial curve, poor fit].
With COC(CNC(=O)c1ccc(Cn2c(=S)[nH]c3cc4c(cc3c2=O)OCO4)cc1)OC the Potency was inconclusive: 28.2 µM [falling, single point].
COc1cc(C=C2C(=O)c3ccccc3C2=O)ccc1O was tested, and the Potency was inconclusive: 7.08 µM [falling, partial curve].
Brc1ccc(CSc2ncn[nH]2)cc1 was tested, and the Potency was “inactive”.
For Brc1ccc(-c2nc(-c3ccccc3)no2)o1, the Potency was inconclusive: 12.6 µM [falling, partial curve].
For COc1ccccc1-c1noc(-c2cccs2)n1, the Potency was inconclusive: 28.2 µM [falling, single point].
In the case of COCCCn1c(-c2ccc(Cl)cc2)n[nH]c1=S, the Potency is reported as inconclusive: 14.1 µM [falling, partial curve].
For Cc1ccc(S(=O)(=O)N2CCC(C(=O)NNS(=O)(=O)c3ccc(Cl)cc3)CC2)cc1, the Potency was “inactive”.
In the case of Fc1cc(F)c2nc(N3CCCCC3)sc2c1, the Potency is reported as inconclusive: 22.4 µM [falling, partial curve].
For Cc1nc(S/C(C(=O)O)=C2/C(=O)Nc3ccccc32)n[nH]1, the Potency was inconclusive: 14.1 µM [falling, partial curve].
With Cn1cccc1C(=O)C(=O)Nc1cc(Cl)cc(Cl)c1 the Potency was inconclusive: 28.2 µM [falling, single point].
Cc1nnc(NC2(C(F)(F)F)C(=O)Nc3c2c(=O)n(C)c(=O)n3C)s1 (centres undefined) was tested, and the Potency was “inactive”.
Cc1cc(OC(C)C(=O)NCC2CCC(C(=O)O)CC2)c2c(C)c(Cc3ccccc3)c(=O)oc2c1 (centres undefined) was tested, and the Potency was “inactive”.
For CCc1ccc(NC(=O)c2noc3c2CCC3)cc1, the Potency was active: 14.1 µM.
With CCCCCCC1/C(=N\NC(=O)c2ccccc2)CCC1C(=O)OC (centres undefined) the Potency was “inactive”.
With CCOC(=O)c1c(N)sc(C(=O)Nc2ccccc2)c1C the Potency was inconclusive: 28.2 µM [falling, partial curve].
For COc1ccc(OC)c(-n2c(Cn3c(-c4ccccn4)nc4ccccc43)n[nH]c2=S)c1, the Potency was inconclusive: 2.82 µM [falling, full curve].
CC1Cc2ccccc2N1C(=O)CNCCCN(C)C (centres undefined) was tested, and the Potency was “inactive”.
In the case of O=C(Nc1cccnc1)Nc1ccc2c(c1)OCO2, the Potency is reported as inconclusive: 22.4 µM [falling, partial curve].
For Cc1c(Cl)cccc1NC(=S)N1CCC(N(C)CC2CCCO2)CC1 (centres undefined), the Potency was “inactive”.
In the case of C/C(=N\NC(=O)c1csc(C)c1C)c1ccco1, the Potency is reported as active: 14.1 µM.
In the case of CCCNC(=O)NS(=O)(=O)c1cnccc1Sc1ccc(Cl)c(Cl)c1, the Potency is reported as inconclusive: 25.1 µM [falling, single point].
With O=C(O)CC(Cc1ccc(Cl)cc1)C(=O)NCc1ccccc1 (centres undefined) the Potency was “inactive”.
O=C(C[n+]1ccc(-c2cc(C(=O)Nc3cccc(C(F)(F)F)c3)c3ccccc3n2)cc1)c1cccc([N+](=O)[O-])c1 was tested, and the Potency was inconclusive: 31.6 µM [falling, single point].
For Cc1cc(NC(=O)CCSc2ccccc2)no1, the Potency was “inactive”.
With CCCCn1c(-c2nn(C)cc2Cl)n[nH]c1=S the Potency was inconclusive: 22.4 µM [falling, partial curve].
For CC(=O)Nc1ccc(-n2cc(-c3ccccc3)[nH]c2=S)cc1, the Potency was inconclusive: 7.94 µM [falling, partial curve].
O=C(/C=C/c1ccccc1)c1ccccc1 was tested, and the Potency was inconclusive: 15.8 µM [falling, partial curve].
S=c1[nH]nc(COc2ccccc2)n1C1CCCCC1 was tested, and the Potency was active: 12.6 µM.
With O=C(O)CN1C(=O)/C(=C\c2cc(Br)ccc2OCc2ccccc2Cl)SC1=S the Potency was inconclusive: 39.8 µM [falling, single point].
With CCC(=O)Nc1ccc(NC(=O)c2ccccc2)nc1 the Potency was inconclusive: 20 µM [falling, partial curve].
In the case of c1ccc(C2=NNC(=NC3CC3)SC2)cc1, the Potency is reported as active: 4.47 µM.
With Cc1occc1C(=O)N/N=C/C(Br)=C/c1ccccc1 the Potency was inconclusive: 28.2 µM [falling, partial curve].
In the case of CC1CCN(CCCNC(=O)c2coc3nc4ccccc4nc23)CC1, the Potency is reported as inconclusive: 17.8 µM [falling, partial curve].
For COc1ccccc1N1CCN(CC(O)c2c(C)[nH]c3ccccc23)CC1 (centres undefined), the Potency was “inactive”.
For CSc1nnc(NC(=O)c2ccc(S(=O)(=O)N(C)C)cc2)s1, the Potency was inconclusive: 14.1 µM [falling, partial curve].
O=C(NC1CCCCCC1)c1ccc(OCC2CCCO2)cc1 (centres undefined) was tested, and the Potency was inconclusive: 20 µM [falling, single point].
In the case of O=C(NC1CC1)c1cccc(Nc2ccc(-c3ccc4c(c3)OCCO4)nn2)c1, the Potency is reported as “inactive”.
For Cc1cc2ncc(C(=O)Nc3ccsc3C(=O)O)c(C)n2n1, the Potency was active: 25.1 µM.
In the case of CC1(C)OC(c2ccccc2)=C/C(=C/C=C2C(=O)NC(=S)NC2=O)O1, the Potency is reported as inconclusive: 14.1 µM [falling, partial curve].
In the case of C/C(=N\N=C\c1ccccc1)c1nnn(-c2nonc2N)c1C, the Potency is reported as “inactive”.
CC1(C)Cc2c(cnn2-c2ccccc2)C(=O)/C1=N\NC(=O)c1ccccc1 was tested, and the Potency was “inactive”.
